The record followed here is publication PMC6919601, “Identification of Plasmodium dipeptidyl aminopeptidase allosteric inhibitors by high throughput screening” (PLoS ONE, 2019).

Among all 110,000 compounds or so, about 230 (0.21%) showed an effect of 50% or more. The list shows a part of the results.
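Also: 30 min substrate incubation versus DMSO and 10 µM JCP410 controls.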

DPAP1, sequence (Q8IIJ9 whole entry, looked up): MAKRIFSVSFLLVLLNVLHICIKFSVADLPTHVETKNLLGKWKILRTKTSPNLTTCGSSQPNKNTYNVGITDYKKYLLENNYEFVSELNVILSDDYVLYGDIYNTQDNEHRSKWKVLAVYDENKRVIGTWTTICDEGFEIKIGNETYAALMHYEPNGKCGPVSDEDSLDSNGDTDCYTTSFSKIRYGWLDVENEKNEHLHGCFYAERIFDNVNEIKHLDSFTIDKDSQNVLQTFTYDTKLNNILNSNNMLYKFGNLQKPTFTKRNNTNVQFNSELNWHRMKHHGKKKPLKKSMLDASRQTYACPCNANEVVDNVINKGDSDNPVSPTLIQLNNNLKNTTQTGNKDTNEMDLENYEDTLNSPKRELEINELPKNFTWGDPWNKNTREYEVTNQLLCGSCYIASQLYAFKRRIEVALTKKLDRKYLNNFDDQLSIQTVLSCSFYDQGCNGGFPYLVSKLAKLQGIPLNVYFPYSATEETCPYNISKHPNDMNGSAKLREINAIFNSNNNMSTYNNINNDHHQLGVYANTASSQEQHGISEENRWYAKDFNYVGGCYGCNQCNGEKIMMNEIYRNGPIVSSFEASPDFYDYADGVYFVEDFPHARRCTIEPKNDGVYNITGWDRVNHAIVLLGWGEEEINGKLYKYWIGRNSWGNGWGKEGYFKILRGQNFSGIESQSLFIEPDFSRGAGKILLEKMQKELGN

The experiment concerns the target DPAP1 (Plasmodium falciparum, UniProt Q8IIJ9). As to the kind of experiment: primary screen, percent inhibition; read by cleavage of a fluorogenic dipeptide substrate; higher = more effect of the substance. On the set-up: species or system P. falciparum D10 trophozoite lysates; single well.
As to `CC(=O)N1N=C(c2ccco2)CC1c1cc2ccc(C)cc2nc1Cl` (centres unmarked), the “% Inhibition @ 10 uM” value is recorded as 1.35%.

Regarding `COc1ccc(C(=O)C2=C(O)C(=O)N(Cc3cccnc3)C2c2ccc(O)c(OC)c2)cc1` (centres unmarked), the “% Inhibition @ 10 uM” value is -2.85%.

On to `CC1(C)CC(NCC(=O)NC2CC(C)(C)NC(C)(C)C2)CC(C)(C)N1`, for which the “% Inhibition @ 10 uM” value is 2.22%.

Turning to `O=C1C2ON(c3ccccc3)C(c3ccncc3)C2C(=O)N1c1ccc(N2CCOCC2)cc1` (centres unmarked), the “% Inhibition @ 10 uM” value is given as -4.41%.

For `Cc1ccc(-c2nc3s/c(=C\c4ccccc4)c(=O)n3n2)cc1`, the “% Inhibition @ 10 uM” value was determined as 0.222%.

Regarding `CN1C(=O)C(=Cc2ccc(-c3ccc(Cl)cc3C(=O)O)o2)C(=O)N(C)C1=O`, the “% Inhibition @ 10 uM” value was 3.81%.

Take `CCOc1ccccc1NC(=O)c1c(NC(=O)CCC(=O)O)sc2c1CCCCC2`: the “% Inhibition @ 10 uM” value is on record as -0.795%.

Regarding `CCCCOc1ccc(C(C)NC(=O)CCN2N=C(c3ccc(C)cc3)CCC2=O)cc1` (centres unmarked), the “% Inhibition @ 10 uM” value was 1.62%.

In the case of `COCCN(Cc1ccco1)C(=O)c1cc2c(Cl)nc3ccccc3c2s1`, the “% Inhibition @ 10 uM” value is given as 3.88%.

For `COC(=O)c1nnn(-c2ccc(OC)cc2OC)c1C(=O)OC`, the “% Inhibition @ 10 uM” value came to 1.85%.

Consider `OCCCc1nc2n(n1)C(c1ccccc1)C=C(c1ccc(Br)cc1)N2` (centres unmarked), for which the “% Inhibition @ 10 uM” value was -0.512%.

Turning to `COc1ccc(C2OC(=O)C3(CCCCC3)C(=O)C2(C)C)cc1OC` (centres unmarked), the “% Inhibition @ 10 uM” value is given as 3.04%.

Regarding `CC(=O)c1c(C)n(-c2cccc3ccccc23)c2ccc(O)cc12`, the “% Inhibition @ 10 uM” value was -7.62%.

As for `COc1cccc(-c2nc(-c3ccc(Cl)cc3Cl)no2)c1`, the “% Inhibition @ 10 uM” value is given as -3.77%.

With `CC(C)c1ccccc1NC(=O)CN(c1cccc(C(F)(F)F)c1)S(C)(=O)=O`, the “% Inhibition @ 10 uM” value is listed as -1.07%.

Regarding `CCOC(=O)c1ccc(NC(=O)CSc2ncnc3sc4c(c23)CCC4)cc1`, the “% Inhibition @ 10 uM” value was -4.91%.

Take `CCC(C)NC(=O)c1ccc([N+](=O)[O-])cc1Cl` (centres unmarked): the “% Inhibition @ 10 uM” value is recorded as -1.22%.

`O=C(O)c1ccccc1NC1=C(Cl)C(=O)N(c2ccccc2)C1=O`: the “% Inhibition @ 10 uM” value was -0.99%.

`COc1ccc(OC)c(NC(=O)CN(c2ccc(Cl)cc2C)S(C)(=O)=O)c1`: the “% Inhibition @ 10 uM” value is reported as 0.324%.

With `CC(C)Cn1c(=O)c2ccccc2n2c(CCC(=O)NC3CCN(Cc4ccccc4)CC3)nnc12`, the “% Inhibition @ 10 uM” value is on record as 2.6%.

In the case of `CCOc1ccccc1CNC(=O)c1sc2nc(C)cc(C)c2c1-n1cccc1`, the “% Inhibition @ 10 uM” value came out at 5.42%.

As to `Nc1ncc(Br)cc1S(=O)(=O)NCCC(=O)NCc1cccnc1`, the “% Inhibition @ 10 uM” value is on record as -0.659%.

For the molecule `COc1ccccc1-c1c(C)nn2c(N3CCN(C(=O)c4ccco4)CC3)cc(C)nc12`, the “% Inhibition @ 10 uM” value was -2.72%.

For the molecule `Cc1ccc(C2C(C#N)=C(N)Oc3[nH]nc(C)c32)c(C)c1` (centres unmarked), the “% Inhibition @ 10 uM” value was -6.25%.

Turning to `Cc1ccc(CN(Cc2ccco2)C(=S)NCC(=O)O)cc1`, the “% Inhibition @ 10 uM” value was 3.04%.

With `CC(=O)c1sc2nc(-c3cccs3)cc(-c3cccs3)c2c1N`, the “% Inhibition @ 10 uM” value is on record as 7.74%.

For the molecule `Cc1c2cnn(CC(=O)N3CCC(C)CC3)c(=O)c2c(C)n1Cc1ccccc1F`, the “% Inhibition @ 10 uM” value was -0.447%.

With `CCCN1C(=O)/C(=C/C=C2/Oc3ccccc3N2CCC(=O)O)N(CCO)C1=S`, the “% Inhibition @ 10 uM” value is on record as 3.47%.

As for `CCCc1[nH]nc2c1C(c1cccc(OC)c1OC)C(C#N)=C(N)O2` (centres unmarked), the “% Inhibition @ 10 uM” value is -2.53%.

For the molecule `CC(=O)NC1=NN(C(C)=O)C(C)(c2ccc(-c3ccccc3)cc2)S1` (centres unmarked), the “% Inhibition @ 10 uM” value came out at 3.99%.

Consider `COc1ccc(CCNC(=O)c2ccccc2NC(=O)c2ccc(C)cc2)cc1OC`, for which the “% Inhibition @ 10 uM” value amounted to 4.44%.

With `Cc1cc(O)c(C(=O)O)c(/C=C/c2cccc(Br)c2)n1`, the “% Inhibition @ 10 uM” value is reported as 2.6%.

In the case of `O=S(=O)(NC1CC2CCC1C2)c1ccc2c(c1)OCCO2` (centres unmarked), the “% Inhibition @ 10 uM” value is reported as -0.641%.

For `CC(=O)c1c(C)nc2ccc(Br)cc2c1C(=O)O`, the “% Inhibition @ 10 uM” value came to 37.2%.

For the molecule `CCCc1nnc2sc(NC(=O)COc3ccccc3)nn12`, the “% Inhibition @ 10 uM” value is recorded as -0.0652%.

Regarding `OCCCCNc1ncnc2c1ncn2C1OC(CO)C(O)C1O` (centres unmarked), the “% Inhibition @ 10 uM” value is reported as 3.58%.

`O=C(C1=C(O)C(=O)N(CCCn2ccnc2)C1c1cccnc1)c1ccccc1` (centres unmarked): the “% Inhibition @ 10 uM” value was found to be 1.88%.

Take `CC(=O)c1cccc(N2C(=S)NC(C)(C)C=C2C)c1`: the “% Inhibition @ 10 uM” value was -7.15%.

Consider `COc1ccc(CC(=O)Nc2cc(Cl)ccc2Cl)cc1`, for which the “% Inhibition @ 10 uM” value is listed as -4.49%.

For the molecule `COc1ccccc1NC(=O)C1CC=CCC1(C)C(=O)O` (centres unmarked), the “% Inhibition @ 10 uM” value worked out at 1.69%.

As for `CN(c1ccc(C(=O)NC2CCCC2)cc1)S(C)(=O)=O`, the “% Inhibition @ 10 uM” value came out at 8.82%.

Regarding `CC1CCC(N(C)CCN(C)C)CC1` (centres unmarked), the “% Inhibition @ 10 uM” value is listed as 0.217%.

With `COc1ccc(-c2cc(-c3ccccc3)nc(O)n2)cc1OC`, the “% Inhibition @ 10 uM” value was -3.27%.

On to `O=C(NCCC1=CCCCC1)c1cnn(-c2ccc(F)cc2)c1-n1cccc1`, for which the “% Inhibition @ 10 uM” value is -5%.

Consider `COc1ccc(NC(=O)c2ccc(CNS(=O)(=O)c3cccc(Cl)c3)cc2)cc1`, for which the “% Inhibition @ 10 uM” value is listed as -6.05%.

As to `COc1cc(CN(C(=S)NCC(=O)NCc2ccc(C)cc2)C2CCCC2)cc(OC)c1OC`, the “% Inhibition @ 10 uM” value is recorded as 8.9%.

Take `CC(Cc1ccccc1)NC(=O)Cc1ccc(N(C)C)cc1` (centres unmarked): the “% Inhibition @ 10 uM” value is on record as -2.21%.

On to `CN(C)CCCC1(O)c2ccccc2C=Cc2ccccc21`, for which the “% Inhibition @ 10 uM” value was -4.28%.

In the case of `CCOc1cccc2cc(C(=O)O)c(=O)oc12`, the “% Inhibition @ 10 uM” value is given as -6.08%.

For `CN(C(=O)/C=C\C(=O)O)C1CCS(=O)(=O)C1` (centres unmarked), the “% Inhibition @ 10 uM” value is 2.56%.
